Assay results from the supplement of paper PMC11417369.
± gives the standard deviation of the averaged measurements. The list shows a part of the results.

Each sequence was assayed on PfAP2-I AP2 domain 3 (GST-tagged) (assay: gcPBM binding intensity (ln(normalized median fluorescence intensity)); higher = stronger DNA binding).
How it was run: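 Binding intensity is defined as the maximum Masliner-normalised natural-log median intensity across replicate spots for either probe orientation. It was measured on an Agilent 4 × 180k array of primer-extended double-stranded 36-bp intergenic genomic probes and negative controls, to which GST-tagged P. falciparum DNA-binding domains made in E. coli were applied for 1 h in 1× PBS with 1% milk, 0.2 mg/ml BSA, 0.5% salmon testes DNA and 0.03% Triton X-100. Detection was by Alexa488 anti-GST antibody and scanning at 488 nm.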

“AAGGATTACAAAAAAAGTACAAATGGATTTTTTCCC [XGTACX_site8905]” and “AAAAAAATTCTTGGCGCACACACTTTAAAAATTAAA [CACACA_site597]” are within error of each other in “gcPBM binding intensity (ln)” value: 7.87 ± 0.53 for the first, 8.4 ± 0.3 for the second.

“CTTACAAATAAACAACGTACTTATTCGAATTATGCT [XGTACX_site2431]” and “CATACAGACGAACACACACACATATAAATATAAATA [CACACA_site6443]” are within error of each other in “gcPBM binding intensity (ln)” value: 7.65 ± 0.52 for the first, 7.95 ± 0.18 for the second.

“TATAATAAAATTGGTAGTACATTAATTTATGTATAG [XGTACX_site3059]” and “TATTATTTTTTTTTTTGTACATATATGTATATATAT [XGTACX_site8471]” are within error of each other in “gcPBM binding intensity (ln)” value: 7.74 ± 0.45 for the first, 8.26 ± 0.56 for the second.

“AACCACATGGTGTAATGTACATTACCTTAACAATAA [XGTACX_site3055]” and “AAATATTATATATATACACACACACCGGCATGCACA [CACACA_site7916]” are within error of each other in “gcPBM binding intensity (ln)” value: 8.1 ± 0.83 for the first, 8.19 ± 0.35 for the second.

Compared with TTTAAACTAGAACAAGTGCAGATATGTATAATAATA, “TTTTATTTTGGAACGTGTACATATAATTATTTATTG [XGTACX_site8094]” is lower in “gcPBM binding intensity (ln)” value: 8.95 ± 0.26 for the first, 7.99 ± 0.47 for the second.

First: TATTTTTAGAAAATAAAGAAGGAGAATTGAAAATAT [CACACA_negctrl_site361]
Second: AAGAAAAGATATATATATAAATATATATATATATAT [TGCATGCA_negctrl_site353]
The “gcPBM binding intensity (ln)” value of the first is lower: 7.87 ± 0.67 for the first, 9.24 ± 0.41 for the second.

“ATTTATTTTTATCAAGCATGCATAAAAAATAAATTA [TGCATGCA_site440]” and “GCATAAAATATGATCGCACACTGTTTAAAATACTTA [CACACA_site828]” are within error of each other in “gcPBM binding intensity (ln)” value: 7.75 ± 0.47 for the first, 8.07 ± 0.6 for the second.

“ATATTACTAATTAATGGTACACGTTATAATAAACTA [XGTACX_site7051]” and “AGGTAGTTCTGTATCACACACATATAAATATAAATA [CACACA_site7110]” are within error of each other in “gcPBM binding intensity (ln)” value: 7.77 ± 0.49 for the first, 7.91 ± 0.57 for the second.

“AAAATATATACAAGCAAACACACGTAATATATATTA [CACACA_site2152]” and “ATACCTTCTTCATTCACACATATACGTAAAATGTTC [CACACA_site5657]” are within error of each other in “gcPBM binding intensity (ln)” value: 7.63 ± 0.61 for the first, 8.28 ± 0.65 for the second.

“ATATATCACATGAACATTAAAAAAAAAAAAGAGGGG [TGCATGCA_negctrl_site187]” and “TTTATACAATTAGACACACACAAAAAGTATAAATAT [CACACA_site6637]” are within error of each other in “gcPBM binding intensity (ln)” value: 8.23 ± 0.12 for the first, 7.88 ± 0.76 for the second.

“ATATCACATTCCACGGTACACACTAATAGAAAAATC [CACACA_site9204]” and “GGAACATATGAACTCACACACATTTTCACTTAAATA [CACACA_site3684]” are within error of each other in “gcPBM binding intensity (ln)” value: 8.19 ± 0.55 for the first, 7.67 ± 0.6 for the second.

“AATATTTATAAATTTACACACACACCGGTGAACATA [CACACA_site8579]” and “TAAAATGATAAATGAATGTGATCATTTTATAAAATA [CACACA_negctrl_site674]” are within error of each other in “gcPBM binding intensity (ln)” value: 7.79 ± 0.57 for the first, 7.38 ± 0.6 for the second.

“TGACATAAATTTAATACACACACAAAGAAAAAAAAA [CACACA_site9354]” and “TTTAAAAAAAAAAAAAAAAATTCTACATGTAATTTA [CACACA_negctrl_site1205]” are within error of each other in “gcPBM binding intensity (ln)” value: 7.97 ± 0.61 for the first, 7.04 ± 0.41 for the second.

“AGAAGAAAAGAAATATGTACATAAACGTCTGAACTA [XGTACX_site1699]” and “ATAACAAATATGATAGCATGCTACATATTACAACTT [TGCATGCA_site524]” are within error of each other in “gcPBM binding intensity (ln)” value: 7.8 ± 0.71 for the first, 7.64 ± 0.63 for the second.

“TGATTAATAGCAGGTAGTACTATAATAATATAAATA [XGTACX_site2776]” and “GTTCCATATATTACATGTACATATTTTTACATTTAA [XGTACX_site660]” are within error of each other in “gcPBM binding intensity (ln)” value: 7.95 ± 0.48 for the first, 8.54 ± 0.57 for the second.

“AAAAAAAAAAGACACACACACAAATACAAATGGTAA [CACACA_site6906]” and “TAAAATTAGGAAATTGCACACAAAAAAAAACATATT [CACACA_site9349]” are within error of each other in “gcPBM binding intensity (ln)” value: 7.71 ± 0.49 for the first, 8.41 ± 0.41 for the second.

“TTTGTTATATTTAATACACACATATTATAAACCCAT [CACACA_site3716]” and “ATAAAGCCATACAATACACACATTTTACATGGCTGT [CACACA_site5756]” are within error of each other in “gcPBM binding intensity (ln)” value: 7.95 ± 0.59 for the first, 7.69 ± 0.65 for the second.

“TACCAAAATAGACACACACACAAAATATGTAAATAT [CACACA_site6963]” and “TATAAATAAATTTATACACACACACCCATATATATA [CACACA_site8183]” are within error of each other in “gcPBM binding intensity (ln)” value: 7.77 ± 0.4 for the first, 8.38 ± 0.61 for the second.

First: TATATTTTAGTTAATGCATGTGTGCATCCATTTAAA [TGCATGCA_site887]
Second: ATACATATATATATATGTACACACATTAATAAAAAA [XGTACX_site6874]
The “gcPBM binding intensity (ln)” value of the first is higher: 9.2 ± 0.23 for the first, 8.1 ± 0.43 for the second.

“AAATAACTCATGGGTTGTACTTAAAAAAAAAAAGAT [XGTACX_site4168]” and “AAACAAAAGTAGAAGGTAGAGTATTTTATATTTAAA [GTGCAC_negctrl_site503]” are within error of each other in “gcPBM binding intensity (ln)” value: 8.23 ± 0.52 for the first, 7.34 ± 0.56 for the second.

“AAACCTTTAGAAAATCGTACAAAACATAACCACCTA [XGTACX_site1098]” and “ATTTTTTTTTTTTGTTTTTTCTTACAAATTAAATGA [CACACA_negctrl_site1457]” are within error of each other in “gcPBM binding intensity (ln)” value: 8.28 ± 0.29 for the first, 7.61 ± 0.47 for the second.

First: CTCTTGTCATTTTGCACACACACATGGATAGGTTAT [CACACA_site5655]
Second: TTTTTTTTTTTTCACGTGCACTATACATATAAGTAA
The “gcPBM binding intensity (ln)” value of the first is lower: 9.99 ± 0.13 for the first, 11.1 ± 0.23 for the second.
